The list shows a part of the results.
Key:
Test in all cases: glycan array binding signal (z-score within array); higher = stronger binding
Settings in all cases: glycan notation: IUPAC condensed, linker removed
[1] = target: Neu5Ac(a2-6)Gal(b1-4)GlcNAc(b1-6)[Gal(b1-3)GlcNAc(b1-3)]Gal(b1-4)Glc
In short: (§1)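 The binding signal is a Z-score computed within each array. Data were drawn from 3228 arrays in the Consortium for Functional Glycomics database, restricted to those with a known protein sequence. Scores were averaged over arrays of the same protein sequence at different concentrations or buffers, and over linkers, and negative values can be taken as non-binding.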

[2] = target: Neu5Ac(a2-6)Gal(b1-4)GlcNAc(b1-6)[Gal(b1-3)]GalNAc
In short: as §1

[3] = target: Neu5Ac(a2-6)Gal(b1-4)GlcNAc6S
In short: as §1

Neu5Ac(a2-6)GalNAc = target: Neu5Ac(a2-6)GalNAc
In short: as §1

[4] = target: Neu5Ac(a2-6)GalNAc(b1-4)GlcNAc
In short: as §1

[5] = target: Neu5Ac(a2-6)GalNAc(b1-4)GlcNAc6S
In short: as §1

[6] = target: Neu5Ac(a2-6)GlcNAc(b1-4)GlcNAc
In short: as §1

[7] = target: Neu5Ac(a2-6)GlcNAc(b1-4)GlcNAc(b1-4)GlcNAc
In short: as §1

Neu5Ac(a2-8)Neu5Ac = target: Neu5Ac(a2-8)Neu5Ac
In short: as §1

[8] = target: Neu5Ac(a2-8)Neu5Ac(a2-3)Gal(b1-3)GalNAc(b1-4)[Neu5Ac(a2-3)]Gal(b1-4)Glc
In short: as §1

[9] = target: Neu5Ac(a2-8)Neu5Ac(a2-3)Gal(b1-3)GalNAc(b1-4)[Neu5Ac(a2-8)Neu5Ac(a2-3)]Gal(b1-4)Glc
In short: as §1

[10] = target: Neu5Ac(a2-8)Neu5Ac(a2-3)Gal(b1-4)Glc
In short: as §1

[11] = target: Neu5Ac(a2-8)Neu5Ac(a2-3)Gal(b1-4)GlcNAc
In short: as §1

[12] = target: Neu5Ac(a2-8)Neu5Ac(a2-3)[Gal(b1-3)GalNAc(b1-4)]Gal(b1-4)Glc
In short: as §1

[13] = target: Neu5Ac(a2-8)Neu5Ac(a2-3)[GalNAc(b1-4)]Gal(b1-4)Glc
In short: as §1

[14] = target: Neu5Ac(a2-8)Neu5Ac(a2-8)Neu5Ac
In short: as §1

[15] = target: Neu5Ac(a2-8)Neu5Ac(a2-8)Neu5Ac(a2-3)Gal(b1-4)Glc
In short: as §1

[16] = target: Neu5Ac(a2-8)Neu5Ac(a2-8)Neu5Ac(a2-3)[Gal(b1-3)GalNAc(b1-4)]Gal(b1-4)Glc
In short: as §1

[17] = target: Neu5Ac(a2-8)Neu5Ac(a2-8)Neu5Ac(a2-3)[GalNAc(b1-4)]Gal(b1-4)Glc
In short: as §1

[18] = target: Neu5Ac(a2-8)Neu5Ac(a2-8)Neu5Ac(a2-8)Neu5Ac(a2-3)[GalNAc(b1-4)]Gal(b1-4)Glc
In short: as §1

[19] = target: Neu5Ac(a2-8)Neu5Gc(a2-3)Gal(b1-4)GlcNAc
In short: as §1

[20] = target: Neu5Ac(b2-6)Gal(b1-4)GlcNAc
In short: as §1

Neu5Ac(b2-6)GalNAc = target: Neu5Ac(b2-6)GalNAc
In short: as §1

[21] = target: Neu5Ac9Ac(a2-3)Gal(b1-3)GlcNAc
In short: as §1

[22] = target: Neu5Ac9Ac(a2-3)Gal(b1-4)GlcNAc
In short: as §1

[23] = target: Neu5Ac9Ac(a2-6)Gal(b1-4)GlcNAc
In short: as §1

[24] = target: Neu5Gc(a2-3)Gal(b1-3)GlcNAc
In short: as §1

[25] = target: Neu5Gc(a2-3)Gal(b1-3)[Fuc(a1-4)]GlcNAc
In short: as §1

Neu5Gc(a2-3)Gal(b1-4)Glc = target: Neu5Gc(a2-3)Gal(b1-4)Glc
In short: as §1

[26] = target: Neu5Gc(a2-3)Gal(b1-4)GlcNAc
In short: as §1

[27] = target: Neu5Gc(a2-3)Gal(b1-4)GlcNAc(b1-3)Gal(b1-4)GlcNAc(b1-2)Man(a1-3)[Neu5Gc(a2-3)Gal(b1-4)GlcNAc(b1-3)Gal(b1-4)GlcNAc(b1-2)Man(a1-6)]Man(b1-4)GlcNAc(b1-4)GlcNAc
In short: as §1

[28] = target: Neu5Gc(a2-3)Gal(b1-4)[Fuc(a1-3)]GlcNAc
In short: as §1

[29] = target: Neu5Gc(a2-6)Gal(b1-4)GlcNAc
In short: as §1

Neu5Gc(a2-6)GalNAc = target: Neu5Gc(a2-6)GalNAc
In short: as §1

[30] = target: Neu5Gc(a2-8)Neu5Ac(a2-3)Gal(b1-4)GlcNAc
In short: as §1

[31] = target: Neu5Gc(a2-8)Neu5Gc(a2-3)Gal(b1-4)GlcNAc
In short: as §1

[32] = target: Neu5Gc(a2-8)Neu5Gc(a2-3)Gal(b1-4)GlcNAc(b1-3)Gal(b1-4)GlcNAc
In short: as §1

[33] = target: Neu5Gc(a2-8)Neu5Gc(a2-6)Gal(b1-4)GlcNAc
In short: as §1

[34] = target: Neu5Gc(b2-6)Gal(b1-4)GlcNAc
In short: as §1

B1: AFCNVH (Aspergillus fumigatus) (protein)
chain: MSLRGFHTTCDTIVLKDKHILSSRCKRPDGTYSFSEIDLNDCLGNNNGKFVWGGESFVDSASQVNLALEGGEGRPMLHAQLNDWHGSVQSASVNLGECIQNEAGGLEYMHC
**Q.** Which “glycan array binding signal (z-score)” value [1] does the source give for B1 here?
**A.** The value was -0.341.

**Q.** What about the “glycan array binding signal (z-score)” value [2] of the same binder?
**A.** Its value is -0.439.

**Q.** What about the “glycan array binding signal (z-score)” value [3] of the same binder?
**A.** The value was -0.494.

**Q.** And the “glycan array binding signal (z-score)” value (Neu5Ac(a2-6)GalNAc)?
**A.** Its value is -0.551.

**Q.** And the “glycan array binding signal (z-score)” value [4]?
**A.** Its value is 1.32.

**Q.** What about the “glycan array binding signal (z-score)” value [5] of the same binder?
**A.** The value was 0.433.

**Q.** What about the “glycan array binding signal (z-score)” value [6] of the same binder?
**A.** Its value is 2.45.

**Q.** And the “glycan array binding signal (z-score)” value [7]?
**A.** The value was 3.29.

**Q.** What about the “glycan array binding signal (z-score)” value (Neu5Ac(a2-8)Neu5Ac) of the same binder?
**A.** Its value is -0.354.

**Q.** And the “glycan array binding signal (z-score)” value [8]?
**A.** Its value is -0.287.

**Q.** What about the “glycan array binding signal (z-score)” value [9] of the same binder?
**A.** Its value is -0.075.

**Q.** And the “glycan array binding signal (z-score)” value [10]?
**A.** The value was -0.371.

**Q.** And the “glycan array binding signal (z-score)” value [11]?
**A.** The value was -0.227.

**Q.** And the “glycan array binding signal (z-score)” value [12]?
**A.** Its value is -0.427.

**Q.** And the “glycan array binding signal (z-score)” value [13]?
**A.** The value was -0.432.

**Q.** What about the “glycan array binding signal (z-score)” value [14] of the same binder?
**A.** Its value is -0.35.

**Q.** And the “glycan array binding signal (z-score)” value [15]?
**A.** Its value is -0.451.

**Q.** What about the “glycan array binding signal (z-score)” value [16] of the same binder?
**A.** The value was -0.421.

**Q.** What about the “glycan array binding signal (z-score)” value [17] of the same binder?
**A.** The value was -0.465.

**Q.** What about the “glycan array binding signal (z-score)” value [18] of the same binder?
**A.** The value was -0.425.

**Q.** And the “glycan array binding signal (z-score)” value [19]?
**A.** Its value is -0.48.

**Q.** What about the “glycan array binding signal (z-score)” value [20] of the same binder?
**A.** Its value is -0.452.

**Q.** And the “glycan array binding signal (z-score)” value (Neu5Ac(b2-6)GalNAc)?
**A.** The value was -0.314.

**Q.** What about the “glycan array binding signal (z-score)” value [21] of the same binder?
**A.** Its value is -0.434.

**Q.** And the “glycan array binding signal (z-score)” value [22]?
**A.** The value was 0.108.

**Q.** What about the “glycan array binding signal (z-score)” value [23] of the same binder?
**A.** The value was -0.359.

**Q.** What about the “glycan array binding signal (z-score)” value [24] of the same binder?
**A.** The value was -0.397.

**Q.** And the “glycan array binding signal (z-score)” value [25]?
**A.** The value was -0.246.

**Q.** And the “glycan array binding signal (z-score)” value (Neu5Gc(a2-3)Gal(b1-4)Glc)?
**A.** The value was -0.447.

**Q.** And the “glycan array binding signal (z-score)” value [26]?
**A.** Its value is -0.375.

**Q.** What about the “glycan array binding signal (z-score)” value [27] of the same binder?
**A.** Its value is -0.488.

**Q.** And the “glycan array binding signal (z-score)” value [28]?
**A.** The value was -0.365.

**Q.** What about the “glycan array binding signal (z-score)” value [29] of the same binder?
**A.** The value was -0.309.

**Q.** What about the “glycan array binding signal (z-score)” value (Neu5Gc(a2-6)GalNAc) of the same binder?
**A.** The value was -0.446.

**Q.** What about the “glycan array binding signal (z-score)” value [30] of the same binder?
**A.** The value was -0.215.

**Q.** What about the “glycan array binding signal (z-score)” value [31] of the same binder?
**A.** Its value is -0.534.

**Q.** And the “glycan array binding signal (z-score)” value [32]?
**A.** The value was -0.325.

**Q.** And the “glycan array binding signal (z-score)” value [33]?
**A.** The value was -0.231.

**Q.** And the “glycan array binding signal (z-score)” value [34]?
**A.** Its value is -0.495.

From the supplement of paper PMC8728848
